Results published in PubChem BioAssay AID743279 (National Center for Advancing Translational Sciences (NCATS), 2014).
The campaign covered roughly 360,000 compounds. About 17,000 (4.7%) were called active. This list was built around the results that the source calls inconclusive (neither active nor inactive); the mix of calls is not that of the screen. Rule as the data show it: active = activity change below about -50%; inconclusive = mostly about -30% to -49%; inactive = weaker than that.

Assay: qHTS for Inhibitors of Inflammasome Signaling: IL-1-beta AlphaLISA Primary Screen
Conditions: THP-1 LPS/ATP IL-1B secretion, 16 h; at 57.5 µM, hits give low values
Outline: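 Secreted IL-1B measured by AlphaLISA bead assay after 16 h compound exposure of THP-1 cells; compounds (final up to 57.5 uM) added 1 h before LPS (250 ng/mL) and ATP (1.25 mM) stimulation; lower signal means less secretion.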
% is scaled to controls: 0 for no effect and ±100 for the full control effect.

Question: For `O=C(NCCN1C(=O)S/C(=C\c2ccccc2F)C1=O)C1CCCN1C(=O)c1cccs1` (stereo not drawn), which activity change is on record?
Answer: inconclusive: -43%

Question: With `CN(CC(=O)Nc1cccc(S(=O)(=O)NC2=NCCCCC2)c1)Cc1ccc(C(C)(C)C)cc1` as the compound, how does the activity change read?
Answer: inconclusive: -45.2%

Question: Which activity change does the source give for `CC(C)=CCC[C@H](C)C[C@@H]1Cc2[nH]c(=S)[nH]c(=O)c2[C@@H](c2ccc(F)cc2)O1` here?
Answer: inactive: 86.3%

Question: With `CSc1ccc(OC2CCCCC2NS(=O)(=O)c2ccccc2)cc1` (stereo not drawn) as the compound, how does the activity change read?
Answer: inactive: 14.3%

Question: Which activity change does the source give for `COc1cccc(-c2nc(CS(=O)(=O)CC(=O)NCCc3ccc(OC)cc3OC)c(C)o2)c1` here?
Answer: inconclusive: -49.2%

Question: For `O=c1c(O)c(-c2ccc(O)c(O)c2)oc2cc(O)ccc12`, which activity change is on record?
Answer: active: -83.5%

Question: For `COc1cccc(/C=C2\C(=O)N(c3cccc(C)c3)C(=O)c3ccccc32)c1`, which activity change is on record?
Answer: inconclusive: -49.3%

Question: With `NC(=S)N=Nc1c(O)n(CCCl)c2ccc(Br)cc12` as the compound, how does the activity change read?
Answer: active: -101%

Question: With `COC(=O)c1cccnc1Oc1ccccc1` as the compound, how does the activity change read?
Answer: inactive: -6.73%

Question: With `CCOc1cc(-c2cc(-c3ccc(N)cc3)nc(N)c2C#N)ccc1O` as the compound, how does the activity change read?
Answer: active: -62.1%

Question: For `CNS(=O)(=O)Cc1ccc2[nH]cc(CCN(C)C)c2c1`, which activity change is on record?
Answer: inconclusive: -48.2%

Question: Which activity change does the source give for `COc1cccc(-c2nn(-c3ccccc3)cc2CO)c1` here?
Answer: inconclusive: -38.5%

Question: With `O=C(COc1ccccc1)Nc1ccc(-c2ccc(N3CCOCC3)nn2)cc1` as the compound, how does the activity change read?
Answer: inactive: 4.25%

Question: With `CCOCCCNC(=O)c1ccc2c(c1)ncn2-c1cccc(C)c1` as the compound, how does the activity change read?
Answer: inconclusive: -35.9%

Question: Which activity change does the source give for `COc1cccc(N(C(=O)c2snc(C(N)=O)c2N)C(C(=O)NCC2CCCO2)c2c[nH]c3ccccc23)c1` (stereo not drawn) here?
Answer: active: -66.5%

Question: Which activity change does the source give for `OC(CSc1ccccc1)CN1CCN(c2ccc(Cl)cc2)CC1` (stereo not drawn) here?
Answer: inconclusive: -44.6%

Question: Which activity change does the source give for `CCOC(=O)c1c(NC(=O)c2cccs2)sc2c1CCC2` here?
Answer: inactive: -1.67%

Question: Which activity change does the source give for `O=C1c2ccccc2C(O)(c2ccccc2)N1c1ccncc1` (stereo not drawn) here?
Answer: inconclusive: -41.6%

Question: With `COc1ccc2c(c1)CSC(c1ccccc1)C2=O` (stereo not drawn) as the compound, how does the activity change read?
Answer: inconclusive: -36.5%

Question: For `Cc1cc(C)cc(NC(=O)N2CCNC(=O)C2CC(=O)Nc2cc(Cl)ccc2Cl)c1` (stereo not drawn), which activity change is on record?
Answer: active: -57.1%

Question: Which activity change does the source give for `CCOC(=O)c1ccc(NC(=S)N2CCC(C(N)=O)(N3CCCCC3)CC2)cc1` here?
Answer: inconclusive: -36.9%

Question: Which activity change does the source give for `O=C(Nc1cccc2c1CCCC2)c1cc([N+](=O)[O-])ccc1Cl` here?
Answer: inconclusive: -35.8%

Question: Which activity change does the source give for `Cc1ccc(C(=O)N[C@@H](C)CN2C3=NC[C@H](C(C)C)N3C[C@H]2Cc2ccc(O)cc2)cc1Br` here?
Answer: inconclusive: -44.4%

Question: For `O=C(CNc1ccccc1)N/N=C/c1cc([N+](=O)[O-])ccc1N1CCCC1`, which activity change is on record?
Answer: inconclusive: -34.1%

Question: Which activity change does the source give for `OC(COc1ccc2c(c1)OCO2)CN1CCc2ccccc2C1` (stereo not drawn) here?
Answer: inconclusive: -44.3%

Question: With `CCCS(=O)(=O)NC(=O)C1(C)CCCN(C(=O)COCc2ccccc2)C1` (stereo not drawn) as the compound, how does the activity change read?
Answer: inactive: 37.9%

Question: For `Cc1ccc(NC(=S)N(CCCN2CCCC(C)C2)Cc2ccco2)cc1C` (stereo not drawn), which activity change is on record?
Answer: inconclusive: -44.9%

Question: With `CCc1ccc(NC(=O)C[n+]2cc(-c3ccc(C)cc3)n3c2CCC3)cc1` as the compound, how does the activity change read?
Answer: inconclusive: -36.2%

Question: Which activity change does the source give for `Cc1ccc(C)n1NC(=O)c1ccccc1Cl` here?
Answer: inactive: 7.77%

Question: Which activity change does the source give for `Nc1nc(NCCCN2CCOCC2)nc(Nc2ccccc2F)c1[N+](=O)[O-]` here?
Answer: active: -57.4%

Question: For `COC(=O)c1sc(S(=O)(=O)N2CCC(C(=O)O)CC2)c(C(=O)OC)c1C`, which activity change is on record?
Answer: inconclusive: -32.8%

Question: Which activity change does the source give for `Cc1ccc2nc(-c3ccc(NC(=O)COC(=O)c4ccco4)cc3)sc2c1` here?
Answer: active: -50.6%

Question: For `CSc1nccc(NC(=O)c2cccc(Br)c2)n1`, which activity change is on record?
Answer: inconclusive: -33.9%

Question: With `Cc1ccc(NC2=C(NC(=O)c3ccccc3)C(=O)c3ccccc3C2=O)cc1Cl` as the compound, how does the activity change read?
Answer: inconclusive: -48.5%

Question: With `CCCCn1c(SCc2c(C)noc2C)nc2cc(S(N)(=O)=O)ccc21` as the compound, how does the activity change read?
Answer: inconclusive: -31%

Question: For `CC(C)c1ccc(NC2CCCN(C(=O)c3ccsc3)C2)cc1` (stereo not drawn), which activity change is on record?
Answer: inconclusive: -37.8%

Question: With `CN(C)c1ccc(N/C=C/C(=O)c2ccco2)cc1` as the compound, how does the activity change read?
Answer: inconclusive: -42.1%

Question: Which activity change does the source give for `CC1(C)CC2CC(C)(CN2/C=N/c2sc3c(c2C#N)CC(C)(C)NC3(C)C)C1` (stereo not drawn) here?
Answer: active: -88.1%

Question: Which activity change does the source give for `Cc1ccc(/C=N/Nc2nc(C(C)(C)C)cs2)o1` here?
Answer: inconclusive: -34.8%

Question: Which activity change does the source give for `CC(C)Oc1ccc(C(=O)Nc2cccc(S(=O)(=O)N3CCCC3)c2)cc1` here?
Answer: inconclusive: -41%

Question: For `C[n+]1c2n(c3ccccc31)N=C(c1ccc(-c3ccccc3)cc1)CS2`, which activity change is on record?
Answer: inconclusive: -48.4%

Question: For `C[C@H]1CN([C@@H](C)CO)S(=O)(=O)c2ccc(Br)cc2O[C@H]1CN(C)Cc1ccccc1F`, which activity change is on record?
Answer: inconclusive: -31.8%

Question: With `CCOC(=O)C1=C(O)/C(=C/c2ccc(-c3ccccc3C(=O)O)o2)SC1=Nc1ccc(C)cc1` as the compound, how does the activity change read?
Answer: inconclusive: -32.8%

Question: With `CCCCCN(C(=O)CCC(=O)OCC(=O)N(C)C1CCCCC1)c1c(N)n(CCCC)c(=O)[nH]c1=O` as the compound, how does the activity change read?
Answer: inactive: 7.74%

Question: With `COc1ncccc1-c1nnn(-c2ccc(Cl)nc2)n1` as the compound, how does the activity change read?
Answer: inactive: -9.19%

Question: For `C/C=C/c1ccc(OCCCCNCc2ccco2)c(OC)c1`, which activity change is on record?
Answer: active: -58.1%

Question: With `C[C@]12c3[nH]c4cc(-c5ccco5)ccc4c3CCN1C(=O)[C@@H](CC(=O)NCc1cccc(C(F)(F)F)c1)C[C@@H]2C(=O)N1CCCCC1` as the compound, how does the activity change read?
Answer: active: -60.1%

Question: Which activity change does the source give for `COc1ccc(-c2cc(C(=O)N/N=C(\C)c3ccco3)c3ccccc3n2)c(OC)c1` here?
Answer: inactive: -15.7%

Question: With `COc1ccc(NC(=O)c2c(-c3ccccc3Cl)noc2C)c(OC)c1` as the compound, how does the activity change read?
Answer: inactive: 1.61%

Question: Which activity change does the source give for `CCCCCCn1c(=O)n2n(c1=O)C[C@]1(OC(=O)NCC3CCCCC3)CN(S(=O)(=O)c3ccc(C)cc3)C[C@]1(O)C2` here?
Answer: inconclusive: -37.5%

Question: Which activity change does the source give for `CN(Cc1ccccc1)C(=O)c1ccc(NC(=O)Cc2cccc([N+](=O)[O-])c2)cc1` here?
Answer: inconclusive: -45.9%

Question: With `COc1ccc(N2CCN(c3nc4ccc(C)cn4c(=O)c3C=O)CC2)cc1` as the compound, how does the activity change read?
Answer: inconclusive: -38.1%

Question: With `O=C(Nc1ccc(Cl)cc1)c1cc(S(=O)(=O)N2CCOCC2)cs1` as the compound, how does the activity change read?
Answer: inconclusive: -38.8%
